These results are taken from patent US20130288983A1 (Amgen, published 2013).

The target in assay [1] is T1, Activin A (Homo sapiens (Human), UniProt P08476 311-426).
T1 sequence: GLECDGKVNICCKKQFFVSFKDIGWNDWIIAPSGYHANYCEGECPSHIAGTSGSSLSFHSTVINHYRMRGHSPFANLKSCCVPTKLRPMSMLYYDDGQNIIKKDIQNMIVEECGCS
Description: cell-based or functional assay.

In assay [2] the target is T1, Activin A. The experiment in a line: SPR (Biacore), purified protein, 20 nM activin A, normalized signal. As for the experimental part:
Qualitative BIAcore® Assay. E28 and R40 were substituted respectively with other natural amino acids in fusions with IgG1 Fc as described above. Each vActRIIB-IgG1Fc sample from conditioned media was captured on goat anti-human IgG1 Fc antibody (Jackson Immuno Research, cat#109-005-098, lot 63550) coated CMS surface. 20 nM of Activin A was injected over captured sample surfaces using BIACore2000 (BIACore Life Sciences, Piscataway, N.J.). The resulting sensorgrams were normalized to the captured RL (500 RU) of vActRIIB-IgG1Fc variants. The normalized binding response (RU) for some variants are shown in Table 2, and is further described below. Relative binding affinity for activin was also determined by Biacore measurements using conditioned media obtained from mammalian cell expression. Activin A (20 nM) was used to capture soluble receptor polypeptide in the conditioned media and measured SPR signals were normalized. Normalized SPR of +++++: >60, ++++:40-60, +++:20-40, ++:10-20, +: 5-10, −: <5.
Activin A (20 nM) was used to capture vActRIIB polypeptides in the samples and measured SPR signals were normalized. IC50 values were obtained from cell-based activin inhibition assays described above. Standard errors are less than 10% for all results.
(Surface plasmon resonance follows binding to a sensor surface in real time, without labels.)

B1: ActRIIB-IgG1Fc (SEQ ID NO: 58) (Fc fusion)
chain: SGRGEAETRECIYYNANWELERTNQSGLERCEGEQDKRLHCYASWRNSSGTIELVKKGCWLDDFNCYDRQECVATEENPQVYFCCCEGNFCNERFTHLPEAGGPEVTYEPPPTAPTGGGGS[letters of human IgG1 Fc with T250I D280G (EU numbers) omitted]
notes: also called ActRIIB-IgG1Fc mature polypeptide; wild type
Turning to B1, in assay [1], the “IC50 (nM) Activin, C2C12/pMARE-luc luciferase reporter assay, 4 nM activin” value was found to be 8.2 nM. Further, in assay [2], the “SPR normalized RU” value worked out at 35 RU.

B2: vActRIIB-IgG1Fc, E28W (SEQ ID NO: 62) (Fc fusion)
chain: SGRGEAETRWCLYYNANWELERTNQSGLERCEGEQDKRLHCYASWRNSSGTIELVKKGCWLDDFNCYDRQECVATEENPQVYFCCCEGNFCNERFTHLPEAGGPEVTYEPPPTAPTGGGGS[letters of human IgG1 Fc with T250I D280G (EU numbers) omitted]
notes: also called vActRIIB-IgG1Fc E28W (E10W) mature polypeptide
Take B2: the “IC50 (nM) Activin, C2C12/pMARE-luc luciferase reporter assay, 4 nM activin” value in assay [1] was found to be 2.07 nM. Moreover, the “SPR normalized RU” value in assay [2] was 128 RU.

B3: vActRIIB-IgG1Fc, E28A (SEQ ID NO: 60) (Fc fusion)
chain: SGRGEAETRACIYYNANWELERTNQSGLERCEGEQDKRLHCYASWRNSSGTIELVKKGCWLDDFNCYDRQECVATEENPQVYFCCCEGNFCNERFTHLPEAGGPEVTYEPPPTAPTGGGGS[letters of human IgG1 Fc with T250I D280G (EU numbers) omitted]
notes: also called vActRIIB-IgG1Fc E28A (E10A) mature polypeptide
For the molecule B3, in assay [1], the “IC50 (nM) Activin, C2C12/pMARE-luc luciferase reporter assay, 4 nM activin” value came out at 25.3 nM. In addition, the “SPR normalized RU” value in assay [2] came to 20 RU.

B4: vActRIIB-IgG1Fc, E28Y (SEQ ID NO: 64) (Fc fusion)
chain: SGRGEAETRYCIYYNANWELERTNQSGLERCEGEQDKRLHCYASWRNSSGTIELVKKGCWLDDFNCYDRQECVATEENPQVYFCCCEGNFCNERFTHLPEAGGPEVTYEPPPTAPTGGGGS[letters of human IgG1 Fc with T250I D280G (EU numbers) omitted]
notes: also called vActRIIB-IgG1Fc E28Y (E10Y) mature polypeptide
For the molecule B4, in assay [1], the “IC50 (nM) Activin, C2C12/pMARE-luc luciferase reporter assay, 4 nM activin” value stood at 2.1 nM. In assay [2], the “SPR normalized RU” value came to 115 RU.

B5: ActRIIB5-IgG1Fc (SEQ ID NO: 68) (Fc fusion)
chain: SGRGEAETRECIYYNANWELERTNQSGLERCEGEQDKRLHCYASWRNSSGTIELVKKGCWLDDFNCYDRQECVATEENPQVYFCCCEGNFCNERFTHLPEAGGPEGPWASTTIPSGGPEATAAAGDQGSGALWLCLEGPAHEGGGGS[letters of human IgG1 Fc omitted]
notes: also called vActRIIB5-IgG1Fc mature polypeptide; wild type ActRIIB5
Consider B5, for which the “SPR normalized RU” value in assay [2] is 37 RU.

B6: vActRIIB5-IgG1Fc, E28W (SEQ ID NO: 72) (Fc fusion)
chain: SGRGEAETRWCIYYNANWELERTNQSGLERCEGEQDKRLHCYASWRNSSGTIELVKKGCWLDDFNCYDRQECVATEENPQVYFCCCEGNFCNERFTHLPEAGGPEGPWASTTIPSGGPEATAAAGDQGSGALWLCLEGPAHEGGGGS[letters of human IgG1 Fc omitted]
notes: also called vActRIIB5-IgG1Fc E28W (E10W) mature polypeptide
As to B6, the “IC50 (nM) Activin, C2C12/pMARE-luc luciferase reporter assay, 4 nM activin” value in assay [1] is 16.9 nM. In addition, in assay [2], the “SPR normalized RU” value came to 45 RU.

B7: vActRIIB5-IgG1Fc, E28A (SEQ ID NO: 70) (Fc fusion)
chain: SGRGEAETRACIYYNANWELERTNQSGLERCEGEQDKRLHCYASWRNSSGTIELVKKGCWLDDFNCYDRQECVATEENPQVYFCCCEGNFCNERFTHLPEAGGPEGPWASTTIPSGGPEATAAAGDQGSGALWLCLEGPAHEGGGGS[letters of human IgG1 Fc omitted]
notes: also called vActRIIB5-IgG1Fc E28A (E10A) mature polypeptide
B7: in assay [2], the “SPR normalized RU” value was determined as 8 RU.
